According to PMC12040169 (PLOS Biology, 2025):
The list shows a part of the results.

System: T1, C. trachomatis L2/434/Bu expressing GFP (CTL2-GFP)
T1 construct: L2/434/Bu GFP intracellular growth in HeLa cells
Parameters: species or system HeLa; C. trachomatis total inclusion area by high-content imaging, normalised to DMSO
Conditions: total inclusion area; 28.5 h, 10 µM; inhibitor
In short: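 Imaging read-out: GFP inclusions and Hoechst nuclei captured by high-content imaging after fixation. Inclusion area/number = chlamydial growth; nuclei count = host cell viability. MIC calculated per earlier method.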

Compound | % of control remaining
COCC(=O)N[C@H]1C[C@H]2C(=O)Nc3ccc(-c4cccs4)cc3C(=O)N2C1 [CBK289358] | 96.7524
Cc1ccc2c(c1)C(=O)CC1(CCC3C(C(=O)NC4CCCC4)C31)O2 (centres unmarked) [CBK282716] | 86.3105
Cc1cc(C)nc(-n2[nH]c(N)cc2=O)n1 [CBK270164] | 100.167
c1ccc(N2CCN(C3CCN(Cc4ccccn4)CC3)CC2)cc1 [CBK264684G] | 106.595
COCCCn1cnnc1C(C)NC(=O)N(C)Cc1nccs1 (centres unmarked) [CBK306702] | 66.8008
Cc1cc(C(=O)N2CCc3c(sc4ncnc(N)c34)C2)sc1C [CBK306420] | 118.512
CN(CCC#N)C(=O)c1cc2cc(Cl)ccc2[nH]1 [CBK287956] | 56.391
CCc1ccc(C(O)CNC2CCN(c3nccs3)CC2)cc1 (centres unmarked) [CBK304215] | 49.9355
Cc1cccc(-c2ncc(NC(=O)Cc3ccc(OC(F)(F)F)cc3)nc2-c2cccnc2)c1 [CBK037030] | 112.705
Cc1nc2c(C(=O)NCCCOC(C)C)cnn2c(C)c1Cc1cccc(Cl)c1 [CBK162043] | 96.377
Cc1ccc(C)c(C2CCCN2C(=O)Cn2cccc(C(=O)NCc3ccccc3)c2=O)c1 (centres unmarked) [CBK286062] | 121.023
O=[N+]([O-])c1ccccc1CN1CCC(N2CCCCC2)CC1 [CBK261852] | 86.3202
COc1cc(N)c2ncccc2c1 [CBK011972C] | 0.8169
Nc1ncncc1-c1noc([C@@H]2CCCN2C2CCOCC2)n1 [CBK288932] | 105.646
CN1CCN(S(=O)(=O)c2ccccc2Br)CC1 [CBK062435] | 91.1426
CC(C)c1ccc(/C=C/C(=O)NCCN2CCOCC2)cc1 [CBK149631] | 99.7547
CCOC(=O)c1ccc(/N=C2/NC(=O)/C(=C\c3ccccc3OCC(=O)O)S2)cc1 [CBK265658] | 98.1882
COc1ccc2[nH]cc(C(=O)NCCn3nc(C)c(C)c3C)c2c1 [CBK281389] | 98.233
Cc1noc(C)c1NC(=O)c1c(-c2ccccc2)noc1C [CBK200314] | 104.346
CSc1nsc(SCc2cnc(C)nc2N)n1 [CBK268337] | 81.0847
CCOC(=O)N1CCN(Cc2ccc(OCc3cccnc3)cc2)CC1 [CBK305883] | 25.3383
CN1C(=O)COc2ccccc2C/C=C/C[C@H]2CN(C(=O)C3CCC3)CC[C@H]21 [CBK292087] | 114.055
CN(C)c1ccc(-c2cncc(NCc3ccc4c(c3)OCO4)n2)cc1 [CBK037190] | 74.276
